# Data published in patent publication US4975450A, “Antidiarrheal” (Slovenska Akademia Vied, priority 1987, dated 1990).
# Tested on: Drosophila melanogaster
# Assay: detection of recessive lethal mutations
# Conditions: 2.5×10^-5 to 2.5×10^-3 M/disc
smiles,measurement,value
"CCCCCOc1cccc(NC(=O)O[C@@H]2CCCC[C@H]2N2CCCC2)c1 (relative stereo) [substance of the formula, (±)-trans-2(1-pyrrolidinyl) cyclohexylester of 3-(n)-pentyloxycarbanilic acid]","mutagenous effects, recessive lethal mutations",no mutagenous effects
